The supplement of paper PMC3334620
Over roughly 33,000 sequences, “E-score (-0.5 to 0.5)” has its median near -0.013; the highest 2% begin near 0.3. The list shows a part of the results.

The sequences below were run against T1, Msn1 (UniProt P22148) (assay: PBM E-score (8-mer binding enrichment) (E-score (-0.5 to 0.5)); higher = stronger / more preferred TF binding; most listed sequences are background and not binding sites). Conditions: protein concentration: 200 nM; construct: GST-full length.
T1 sequence: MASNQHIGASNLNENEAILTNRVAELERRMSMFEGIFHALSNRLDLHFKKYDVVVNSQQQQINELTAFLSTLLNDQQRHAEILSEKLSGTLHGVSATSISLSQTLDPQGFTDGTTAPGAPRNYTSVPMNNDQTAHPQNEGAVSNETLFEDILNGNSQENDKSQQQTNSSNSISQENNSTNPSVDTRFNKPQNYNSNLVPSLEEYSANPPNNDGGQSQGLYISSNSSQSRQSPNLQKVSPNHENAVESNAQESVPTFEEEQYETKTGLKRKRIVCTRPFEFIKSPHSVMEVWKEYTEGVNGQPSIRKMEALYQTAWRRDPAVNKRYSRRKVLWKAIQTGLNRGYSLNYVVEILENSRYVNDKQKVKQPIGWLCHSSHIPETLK
Procedure, shortened: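 Masliner-normalised scans of fluorescent anti-GST signal were the basis for scoring. That signal came from GST-tagged yeast transcription factors applied at about 100-200 nM to double-stranded universal all-10-mer Agilent arrays on fresh or once-stripped slides. Each ungapped eight-base word, pooled with its reverse complement, received an E-score from the Universal PBM Analysis Suite.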

Row | Sequence | PBM E-score
1 | ATACGTGC | -0.178
2 | AACTACCC | 0.0205
3 | GTAAGCAC | -0.0979
4 | TACAAGAA | 0.169
5 | CTAGTCAC | -0.0149
6 | CCGGGCTA | -0.267
7 | GAAAGAAA | 0.0913
8 | CAGTGACC | -0.253
9 | CCTGCAAA | -0.188
10 | GCTACTGA | -0.124
11 | GTAGGGTA | 0.101
12 | AACGGTAA | 0.0145
13 | ACTCCCGA | -0.029
14 | GTCCAGAC | 0.0762
15 | AGCTATCA | -0.069
16 | CAGGGTAG | -0.22
17 | AGTCTACG | -0.221
18 | AGCAACAC | -0.0275
19 | GGTCCACC | -0.159
20 | CAGGAAGA | -0.0636
21 | ACGTCTGA | 0.121
22 | ACATAGAG | 0.00923

Row | Sequence | PBM E-score
23 | ACGGACCA | 0.0706
24 | ACAATGCT | -0.0967
25 | CTGACACC | 0.0607
26 | CTCCTATA | -0.254
27 | ATCATATA | 0.0866
28 | CCACAATC | -0.00968
29 | AGTCCGGC | 0.136
30 | GCACTTAC | -0.207
31 | TAAGGACA | 0.481
32 | GAACTGAA | -0.00121
33 | CGTGCCTC | -0.053
34 | CGCTGACA | 0.314
35 | GGCTTGCA | 0.00927
36 | AGCCGAAA | 0.193
37 | CTCCCGTA | -0.207
38 | GTGCTAAC | 0.0216
39 | AATTTACC | 0.056
40 | TGGATTAA | -0.0801
41 | GGTAGAAC | -0.115
42 | GCCCCCAA | -0.243
43 | ACATTGGT | 0.123
44 | GAGGTGGC | -0.233

Row | Sequence | PBM E-score
45 | ACTATAAG | 0.0186
46 | CGACCGCA | -0.0304
47 | AATGACTA | 0.17
48 | AAGATGAT | 0.0352
49 | AGCTGTAG | -0.217
50 | ATGTGGGG | -0.388
51 | CCTAGCAA | -0.0686
52 | TGGTTCAA | 0.0383
53 | CCTCGCTC | -0.00381
54 | ACGTGACT | -0.133
55 | GACACGAC | 0.248
56 | GATTCATA | -0.00685
57 | CAAAGAGG | -0.187
58 | CTAGGAGC | -0.125
59 | CAATAGCC | -0.109
60 | AATCGACT | -0.116
61 | ACCTGGGA | -0.0183
62 | CAGTTTAA | -0.0457
63 | ATACTTAA | 0.16
64 | TAATTCGA | 0.173
65 | AATGCAAC | 0.099
66 | CTTTTGGC | 0.00887

Row | Sequence | PBM E-score
67 | CTGACATC | 0.143
68 | ATTTCAGC | -0.0737
69 | ACATTAGT | -0.0414
70 | GTAAGCAA | 0.0165
71 | CCGCAGTA | -0.174
72 | TACGAGGA | 0.144
73 | AATACTTA | -0.038
74 | AGCTTTTC | -0.101
75 | AGAGGTCG | -0.105
76 | AGGTTACG | -0.112
77 | CTTGTAAC | 0.123
78 | CTCGAGTA | 0.0948
79 | TCCTGCGA | -0.0574
80 | ATGCTTTA | -0.00871
81 | GGCGCGCA | -0.0699
82 | CGGAGGTA | -0.0534
83 | GTCATCGA | 0.116
84 | TCCGTCGA | 0.119
85 | CTCCTCAG | -0.171
86 | TCGAAACA | 0.083
